From the supplement of paper PMC10126150
Values marked as one replicate rest on one cluster of the flow cell; about a third of the high ones do not repeat.

System: ATP
Assay: switch fluorescence ratio, 500 uM ATP over buffer (Cy3 cluster intensity, sum of 5 cycles each) (fold (ratio)); higher = stronger signal-on switching upon ATP binding; sequences stand for … in TCGTCGGCAGCGTCAGATGTGTATAAGAGACAGTTTTTTTTTTTTTTTTTTTTTTTTT…TC
Settings: aptamer strand: ATP DNA aptamer (quencher-CACCTGGGGGAGTATTGCGGAGGAAGG + anchor), 100 nM annealed; ATP concentration: 500 uM; one replicate
Summary of the method: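 The quencher-labelled ATP aptamer, at 100 nM, was annealed to Cy3-labelled switching-strand clusters on a modified Illumina MiSeq flow-cell. The clusters were imaged in selection buffer, then after 15 min with 500 uM ATP at 22 °C, and this buffer/ATP cycle ran five times with NaOH stripping and re-annealing between runs. Per-cluster fluorescence ratios, summed target-cycle over summed buffer-cycle Cy3 intensity, were averaged per switch-domain sequence. Clusters outside 100-1000 RFU were excluded.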
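Note: ATP exposure 15 min at 22 °C before imaging.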

Sequence | switch fluorescence ratio
ATATAAGT | 0.946
ATCTAGAGAC | 1.11
GATGTGACCT | 1.23
TCTCATGCGG | 1.06
CACCCGGCCT | 1.06
AGCGGGCAGC | 1.01
TAGGGTCAAG | 0.986
AACTAGAGCA | 0.984
CCGTTAGAGC | 1.15
CAGTAAATCA | 0.979
AAGTCTAGTT | 0.975
CAATCTTTCT | 1.05
GCCCTAAGAA | 0.944
CCGGGTTCCT | 1.02
AATAGAGTGC | 0.979
CCCGGGCCAC | 1.13
GTACGCCTTC | 1.06
GAATAACGTG | 1
ACACTCAGT | 1.05
ATAGTGAGTG | 0.97
CGTAGAACGT | 0.956
GGTTAGGCTC | 1.07
TTAACCTACT | 1.12
TTAGATCGAT | 0.967
GCTCTTCGCT | 1
GGGTTCGGCG | 1.02

Sequence | switch fluorescence ratio
GTTTATCTTT | 1.01
TTAGGCCTCT | 0.959
TAGAGTCAAG | 1.01
CCTCTAATGA | 2.37
ACGTAAGTTT | 1.06
ATATGAACAA | 0.996
CCTGATATTT | 1
AGTTCGCCCT | 1.06
GAAAAGTTAT | 1
AGGCATTTTG | 0.948
TGGTCCTGC | 1.03
TACGTTCGTG | 1
CGAGCCTCT | 0.981
CTAGTGGTGT | 1.05
GGTCTACGTG | 1.03
GCCGATCAC | 1.01
AACCGGCTTT | 1.04
AATTAAAAAA | 1.21
TTAACCCTCG | 1.06
TAATGGTTT | 1.16
CTGGTAGGCG | 0.934
CTGTGTTGGG | 1.01
AAACCCGTAT | 1.06
CGTAAGTGGG | 1
GTGCCCCATA | 1.07
CCACCCCA | 1.14

Sequence | switch fluorescence ratio
TCGGATGTAG | 1.03
GGAGCCGTGA | 0.973
GGTAATT | 0.97
CCCAAGTGGG | 0.977
TCTTTTTAA | 0.962
TAATCATTA | 1.01
GCAAGGCCTG | 0.99
AGGGCATGTA | 0.979
GTCATTATTC | 0.94
ATTGAGGGAT | 0.952
CCGTGGTGTT | 1.15
GCCGTTAGGA | 0.993
GACATAG | 1.08
ATGCGGCGTA | 1.03
CTTCTCACAG | 0.989
TAATCTGGGG | 0.981
TAAGGTTAGA | 1.04
GTGCAGTATG | 0.99
CACCGGGGCG | 1.06
CGCTAGCGCT | 0.991
GCCGGCCAAA | 0.961
CGATAATTTC | 1
GCTCCTAATG | 1.08
AGCCGACGAA | 1.2
ACAGGGATTG | 1
GCATGATCGC | 1.04

Sequence | switch fluorescence ratio
TTCCGTCTTT | 0.997
ATGAAGTTTG | 1.91
TTAATTGATT | 1.03
CTTCTTCTGT | 1
ATGACCTTTG | 0.993
TTAGAGCATG | 0.996
CTGGCAACCC | 1.25
TATTACCACC | 1.27
CGTTAGCGGA | 0.981
AGGCGGCGCG | 0.996
TCTTATATTG | 0.97
CATGGCAGGT | 1.02
TAAGTGAGAG | 0.953
AATCTTAGTT | 1.01
AGCCGGCTTC | 1.04
TTGTAATCTG | 0.986
ATTCAGAAGT | 1.01
TTTATCTAAA | 1.02
CATAAAAGGT | 0.99
GTAAACTTGT | 0.981
TAAACTTGGA | 1.09
AGGTCGACC | 0.981
TGGGCTCAAT | 1
CTATTGATTG | 1
TAGAGTGTT | 0.977
TCATTACTAG | 1.18

Sequence | switch fluorescence ratio
GGCACTGATG | 1.04
CGTAGTGTGC | 1.74
CCGCGCCATT | 2.35
TGGCTGATCT | 0.995
ACCAGAAAC | 2.02
ATTATGAGA | 1.03
TGCTTCAAGA | 0.967
TCAGGGCTTT | 1.02
CTATGAATGT | 0.946
TTATTTTGAA | 1.03
GGAAAGTGGG | 0.996
GGAGCTAGTG | 0.958
GTGAGTCCCC | 0.943
GAGGACGCTA | 2.48
TATATAGACC | 1.14
TGTAGTTAAC | 1.01
TGTTCAGA | 0.999
GTATAATGAG | 0.967
ACGACATCTC | 1.15
TTCATTCAAA | 0.975
CTCGAATTTT | 0.979
TCTTTGCCGG | 0.985
AATACGGCAG | 0.98
TCCCACAAC | 1.11
TTCTGGGCCA | 0.962
CTGGTAATGT | 1

Sequence | switch fluorescence ratio
AATTCCACCT | 1.14
GTTACGTAAA | 1.19
GCATCGTACT | 1.08
CATCTAAGGT | 0.985
CTTAGTGTG | 0.981
TATTACGCTT | 1.04
TGGGGCAAGA | 1.41
TGGATGCCAA | 0.981
CGAGAAAATT | 1.3
ACTTTAGGAC | 1.01
GGTAACTGG | 0.968
ACGCCGAATA | 1.32
AGTGAACGCG | 1.02
GCGGCTGTAC | 2.44
CAGTTGCGGA | 0.993
TGGCTAGGTG | 1.63
AAGCCATAAA | 0.962
CCAGTCTTTA | 1
GATGGTGATC | 0.995
CTCACTCGAC | 1.08
AACAGACAGC | 1.11
CTTAGGTACC | 1.05
TTGAATG | 1.01
GGGTACACAG | 0.996
ACACTTTCGC | 1.03
GATCGTGATC | 1.02

Sequence | switch fluorescence ratio
TTTCCCCCGC | 3.41
GGGTCTGATG | 1.01
AAACTAGCTA | 0.984
CCGACCGGGT | 1.32
GATCTGACGA | 0.99
TCAGATGTTA | 1.03
GGGAGATAAT | 1.01
CCGGAGCTCG | 2.81
TTCGTGCTGG | 0.985
CGATTGCGCA | 0.975
GTGTTTTATC | 1.05
AGCTTTTCCC | 1.08
GGGGCCTGAC | 1.22
TATAATATCC | 1.02
AAGATCGGTA | 0.979
TTTGAATTC | 1.02
CGGCGGAAAT | 1.01
TGGATGTAG | 0.993
GAATAGGCGC | 0.983
CCAGTACTGC | 1.07
GTCTGTAAG | 0.993
GGGTTACTTC | 1.03
CTCACTGCTA | 1.33
ACCTCGTCTG | 1.02
GGGGCACTTG | 0.997
CGCGGGCTCA | 1.08

Sequence | switch fluorescence ratio
TCGGGTTTCG | 1.01
GGCTGTCCAA | 0.991
ACCCAGTGTC | 1.67
TTGAACATTT | 1.01
GTATGAGCGT | 0.989
GGGGGCCGTG | 0.869
CAAAGCCGTG | 1.02
TCGTGATTTG | 0.998
CGATGCGATG | 1.45
CAGTGATTAG | 0.973
CTCTGAAACA | 0.937
CGACTATCCG | 0.991
GGCGCTCCGT | 1.05
CTCCTCAGTA | 2.18
AACAGACGTT | 1.21
TATGATATGA | 1.02
ATATAGCTAT | 1.03
AGGCGACTCT | 0.941
GAAGCAGTAC | 1.23
